Data from PubChem BioAssay AID1508642 (National Center for Advancing Translational Sciences (NCATS), 2021).
In all, about 43,000 compounds went through this assay and about 200 (0.47%) were called active. About 12% were inconclusive and are not listed. The call rests on the fitted dose curve; in most records, active means well fitted cell-killing curve with a large enough effect; inconclusive means small, poorly fitted or top-dose-only effect, or effect the other way; inactive means flat fitted curve, though single readings scatter. Some of the results follow.

test: Cell viability qHTS assay in S16 Pmp22-F2sN cells; conditions: S16 Pmp22-F2sN Schwann cells viability, CellTiter-Glo, 24 h; series mostly up to 57.5 µM; activity change, negative = cytotoxicity: at the top concentration; further: nearly all actives have a fitted effect of over 65% in size
How it was run: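 Viability was measured by CellTiter-Glo luminescence (15 min, room temperature). This followed 24 h at 37 °C of compound exposure (23 nL pin transfer) in S16 Pmp22-F2sN Schwann cells, 500-1,000 per well.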
On the % scale 0 is the no-effect control and ±100 the full control effect.

Structure (SMILES) | activity change, negative = cytotoxicity
Cc1oc(-c2ccc(C(=O)Nc3cc(F)ccc3F)cc2)nc1COc1ccccc1 | inactive: -3.03%
CN(c1ccc(Cl)cc1)S(=O)(=O)c1nnc(NC(=O)C2CCCCC2)s1 | inactive: 0.246%
COc1cccc(NC(=O)CN(C)S(=O)(=O)c2ccc3nc(C)sc3c2)c1 | inactive: -5.71%
COc1ccc(C)cc1N(C)C(=O)c1c(C)oc2ncnc(N3CCOCC3)c12 | inactive: -0.319%
CCOc1ccccc1NC(=O)c1c(NC(=O)c2ccccc2C)sc2c1CCC(C)C2 (configuration not stated) | inactive: 6.23%
COC(=O)c1c(C)sc(-c2c(-c3ccc4c(c3)OCCO4)[nH]c3c2c(=O)n(C)c(=O)n3C)c1O | inactive: 18.3%
CCNC(=O)c1cnc2sc(N3CCCCCC3)nn2c1=O | inactive: 22.6%
COc1cc(C(=O)Oc2c(Sc3ccc(C)cc3)c(C)nn2-c2ccccc2)cc(OC)c1OC | inactive: 0.765%
CCOc1ccc(CNC(=O)CCC(=O)N2CC(C)Sc3ccccc32)cc1 (configuration not stated) | inactive: 6.55%
CCOc1ccc(CCNC(=O)CCCn2nc(C)c3sc4ccccc4c3c2=O)cc1OCC | inactive: 4.93%
O=C(CSc1nccn1-c1ccccc1)Nc1nc2ccccc2s1 | inactive: -9.94%
CCn1c2ccccc2c2nnc(SCCN3CCCCC3)nc21 | inactive: -5.08%
N#C/C(=C/c1cn(Cc2ccc(F)cc2)c2ccccc12)C(=O)Nc1cccc(Cl)c1 | inactive: -25.4%
COc1ccccc1Nc1nn2c(=O)c3ccc(C(=O)NCCCOC(C)C)cc3nc2s1 | inactive: 0.54%
COC(=O)CC1c2cc(OC)c(OC)cc2CCN1C(=O)Nc1ccc(C)cc1Cl (configuration not stated) | inactive: -20%
COc1cc(-c2noc(-c3ccc(NCc4cccnc4)c([N+](=O)[O-])c3)n2)cc(OC)c1OC | inactive: -7.54%
Cc1ccc(NC(=O)c2cnc(SCC(=O)N3CCOCC3)n(C)c2=O)cc1 | inactive: -2.54%
CCOc1ccc(OCC)c(NC(=O)Cn2ncc3c4ccccc4n(Cc4ccccc4)c3c2=O)c1 | inactive: 17.1%
CCc1ccc(CNC(=O)c2cccc(-n3cnc4cccnc43)c2C)cc1 | inactive: -10%
CCC1CN(C(=O)N2CCC(C(=O)NCCN(C)C)CC2)c2ccccc2O1 (configuration not stated) | inactive: 5.5%
Cn1ccc2cc(S(=O)(=O)N3CCCN(C(=O)Nc4ccccc4Br)CC3)ccc21 | inactive: 5.84%
CCc1ccccc1NC(=O)N1CCN(c2cc(-c3noc(C)n3)ccc2C)CC1 | inactive: -5.29%
COc1cc2ccccc2cc1C(=O)Nc1cccc(-c2nc3cc(C)c(C)cc3o2)c1C | inactive: 0.394%
COc1ccc2oc(=O)c(C(=O)NCCc3c(C)[nH]c4c(Cl)cccc34)cc2c1 | inactive: 1.45%
O=C(Nc1cccc(Cl)c1Cl)c1ccc2c(c1)N(Cc1cccc(Cl)c1)C(=O)c1ccccc1S2(=O)=O | inactive: 6.12%

Structure (SMILES) | activity change, negative = cytotoxicity
Cc1nc2nc(NCc3cccc(Br)c3)[nH]n2c(=O)c1Cc1ccccc1 | inactive: -1.08%
CCC(=O)N1CCc2cc(Br)cc(S(=O)(=O)N3CCCC(C(=O)Nc4ccc(OC)c(Cl)c4)C3)c21 (configuration not stated) | inactive: 4.22%
Cn1nnnc1SCCNCc1ccc(F)cc1 | inactive: 4.41%
CCOC(=O)c1cccc(NC(=O)C(CC(C)C)N2Cc3ccccc3C2=O)c1 (configuration not stated) | inactive: -23.8%
Cc1ccc(CN(C(=O)COc2cccc([N+](=O)[O-])c2)c2ccccn2)o1 | inactive: -7.44%
O=S(=O)(Nc1ccc(Cl)cc1)c1ccc(NS(=O)(=O)c2ccc3c(c2)OCCO3)cc1 | inactive: -17.5%
COc1ccc(NS(=O)(=O)c2ccc3[nH]c4c(c3c2)CCCC4)cc1OC | inactive: -10.2%
CCCCOc1cccc(C(=O)N(Cc2ccc(C)o2)c2ccccn2)c1 | inactive: -5.78%
CCOc1ccc(CCNC(=O)c2cnc3sc(N4CCCC4)nn3c2=O)cc1 | inactive: -27.1%
CN(Cc1ccccc1)C(=O)c1nc(-c2ccc(Cl)cc2)n2c1CCCCC2 | inactive: -21.1%
CC1N=C2c3ccccc3N=C(SCC(=O)NCCc3ccccc3)N2C1=O (configuration not stated) | inactive: 1.98%
CC(=O)Nc1ccc(NC(=O)c2ccc3c(c2)N(Cc2cccc(Cl)c2)C(=O)c2ccccc2S3(=O)=O)cc1 | inactive: 9.33%
CCOC(=O)C(C)Sc1ccc2nnc(CCNS(=O)(=O)c3ccccc3)n2n1 (configuration not stated) | inactive: 11%
CCn1c(CN2CCCCC2)nc2cc(NC(=O)c3cc(OC)c(OC)c(OC)c3)ccc21 | inactive: -27.9%
Cc1ccc(Cl)cc1N1CCN(CCCNC(=O)c2ccc3nc(N4CCCCC4)sc3c2)CC1 | inactive: 6.81%
Cc1ccc(-n2nc3c(=O)n(C(C)C(=O)NCc4ccco4)nc(C)c3c2C)cc1 (configuration not stated) | inactive: -2.35%
COC(=O)CC1Oc2ccc(Cl)cc2-n2cc(-c3ccccc3)nc21 (configuration not stated) | inactive: 26.1%
Oc1c(C(c2ccccc2)N2CCC(O)CC2)sc2nc(-c3ccco3)nn12 (configuration not stated) | inactive: 3.44%
O=C(NC1(C(F)(F)F)NC(=O)N(CCc2ccccc2)C1=O)c1ccc(Cl)cc1 (configuration not stated) | inactive: 22.7%
COc1ccccc1CNS(=O)(=O)c1cnc(N)nc1 | inactive: 5.08%
COc1ccc(C2c3c(n(C)c4ccccc34)C(=O)N2CC(=O)Nc2cccc(F)c2)cc1 (configuration not stated) | inactive: 0.695%
COc1ccc(NC(=O)c2oc3ccc(S(=O)(=O)N4CCOCC4)cc3c2C)cc1 | inactive: -7.33%
Cc1ccc(N2CC(C)Cn3c2nc2c3c(=O)n(Cc3cccc(Cl)c3)c(=O)n2C)cc1 (configuration not stated) | inactive: 2.02%
CCCc1cc(=O)[nH]c2nnc(SCC)n12 | inactive: 5.81%
O=c1oc2ccc3ccccc3c2cc1-c1nnc(Nc2ccc(F)cc2)s1 | inactive: 4.75%

Structure (SMILES) | activity change, negative = cytotoxicity
COc1cccc(CNc2cc(C)nc3nc(-c4ccc(C)cc4)nn23)c1 | inactive: 7.58%
Cc1ccc2c(c1)C(c1ccccc1)N(C(=O)Cc1ccc(F)cc1)CC(=O)N2 (configuration not stated) | inactive: 0.865%
CCCS(=O)(=O)NCCc1sc2nc(-c3ccc(F)cc3)nn2c1C | inactive: -14.7%
Cn1c(=O)[nH]c2cc(-c3noc(-c4ccc(C#N)cc4)n3)ccc21 | inactive: 6.89%
O=C(c1cccn1-c1nnc(N2CCCC2)s1)N1CCN(c2ccc(Cl)cc2)CC1 | inactive: 5.22%
O=C(COc1ccc2ccccc2c1)NC1CC(=O)N(c2cccc(F)c2)C1 (configuration not stated) | inactive: 8.94%
Cc1ccc(S(=O)(=O)Nc2nc3n(n2)C(c2ccc(F)cc2)C=C(c2ccccc2)N3)cc1 (configuration not stated) | inactive: 7.18%
CC1=C(C(=O)Nc2ccc(Cl)cc2)C(CC(C)C)n2nc(SCc3ccccc3C)nc2N1 (configuration not stated) | inactive: -2.54%
COc1ccc(C2=NC(C)(C)N(CC(=O)Nc3cccc(C)c3)C2=O)cc1 | inactive: -27.8%
CN(C)C(=O)c1c(NC(=O)c2ccccc2F)sc2c1CCCC2 | inactive: 1.63%
CC(=O)Nc1ccc(S(=O)(=O)NCC2CCC(C(=O)NCCN(CC(C)C)CC(C)C)CC2)cc1 (configuration not stated) | inactive: 1.51%
COC(=O)c1ccc(C(=O)OC)c(NC(=O)c2ccc(-c3ccccc3)s2)c1 | inactive: 5.5%
COc1cccc(-c2nc(S(=O)(=O)c3ccc(C)cc3)c(N3CCCCC3)o2)c1 | inactive: -9.84%
COc1ccccc1CNC(=O)c1ccc2nc(CCc3ccccc3)oc2c1 | inactive: -1.63%
CCOC(=O)c1c(C)oc2ncnc(Nc3ccc(OC)c(OC)c3)c12 | inactive: -2.27%
COc1ccc(Cn2c(=O)c3cccnc3n(Cc3cccc(F)c3)c2=O)cc1 | inactive: 11.7%
COc1ccc(-c2cc3nc(C)c(CCC(=O)NC4CCCCC4)c(C)n3n2)c(OC)c1 | inactive: 1.38%
CCOC(=O)c1ccccc1NC(=O)CSc1nccn1Cc1ccco1 | inactive: -4.51%
COc1ccccc1NC(=O)c1c(C)cc(C)nc1SCC(=O)c1ccc(Cl)cc1 | inactive: -4.17%
CC(C)Oc1ccc(C(=O)N(Cc2ccco2)Cc2cccs2)cc1 | inactive: -15.6%
O=C(CSc1ncc(S(=O)(=O)c2ccc(Cl)cc2)c(=O)[nH]1)Nc1cccc(C(F)(F)F)c1 | inactive: -2.39%
Cc1cccc(C)c1NC(=O)c1sc(-n2nc(C)c(Cc3ccccc3)c2C)nc1C | inactive: 2.19%
Cc1cc(OCC(=O)N(Cc2ccc(N(C)C)cc2)CC2CCCO2)ccc1Cl (configuration not stated) | inactive: -4.71%
NS(=O)(=O)c1ccc(NC(=O)C2Cc3ccccc3N2C(=O)c2ccccc2)cc1 (configuration not stated) | inactive: -18.8%
Cc1ccccc1C(=O)n1nc(-c2cccnc2)nc1NCc1ccccc1 | inactive: 5.22%

Structure (SMILES) | activity change, negative = cytotoxicity
COc1ccc(OC)c(CCNC(=O)Cn2ncc3c([nH]c4ccccc43)c2=O)c1 | inactive: 14.2%
CCn1cc2nc(SCC(=O)Nc3ccccc3C(F)(F)F)n(Cc3ccc(C)cc3)c(=O)c2n1 | inactive: -4.22%
COC(=O)c1nnn(CC(=O)NC(=O)Nc2c(C)cccc2C)c1C(=O)OC | inactive: 8.51%
CC1Cc2ccccc2N1S(=O)(=O)c1nnc(NC(=O)c2ccccc2)s1 (configuration not stated) | inactive: 3%
COc1ccc(C2CC(=O)c3cc(-c4nc(-c5ccc(Cl)cc5)cs4)c(=O)[nH]c3C2)cc1OC (configuration not stated) | inactive: 2.38%
COCCCNC(=O)CCC(=O)NNc1nc2ccccc2c2nc(C)nn12 | inactive: 6.27%
CC(C)Oc1ccc(-c2nc3c(C#N)c[nH]n3c2NC2CCCCC2)cc1 | inactive: -7.31%
COc1ccc(N2CC(NC(=O)C(c3ccccc3)c3ccccc3)CC2=O)cc1OC (configuration not stated) | inactive: 4.63%
Cc1ccc(Cn2c(C(C)NC(=O)c3ccccc3)nc3ccccc32)cc1 (configuration not stated) | inactive: -1.03%
CCOc1ccccc1CNc1nc2nc(C)cc(C)n2n1 | inactive: 1.81%
Cn1ccc2cc(S(=O)(=O)N3CCN(C(=O)Nc4ccc(F)cc4F)CC3)ccc21 | inactive: 2.02%
CCOC(=O)c1c(C)[nH]c(CCC(=O)Nc2ccc(OC)c(OC)c2)c1C | inactive: -3.82%
Cc1noc(C)c1S(=O)(=O)N1CCC(C(=O)N2CCN(c3cccc(C(F)(F)F)c3)CC2)CC1 | inactive: -0.777%
CC(C)NC(=O)CCC(=O)N1Cc2ccccc2Oc2ncccc21 | inactive: 10.4%
COc1ccc(-c2cc3ccc(O)c(CN4CCC(C)CC4)c3oc2=O)cc1OC | inactive: -1.24%
Cc1cccc(Cn2cccc2CNS(=O)(=O)c2ccc(Br)cc2)c1 | inactive: -2.19%
COc1cc(-c2nnc(SCCOc3cc(C)cc(C)c3)o2)cc(OC)c1OC | inactive: 15.6%
Cc1cc(OC(C)C(=O)Nc2sc3c(c2C(N)=O)CCCC3)ccc1Cl (configuration not stated) | inactive: 12.2%
CC(NC(=O)CN1C(=O)c2cccnc2Oc2ccc(Cl)cc21)c1ccccc1 (configuration not stated) | inactive: -1.6%
Cc1ccccc1CN1C(=O)c2ccccc2S(=O)(=O)c2ccc(C(=O)OCC3CCCO3)cc21 (configuration not stated) | inactive: 1.51%
Cc1ccc(C(C)C)c(OC(C)C(=O)NCC2(N(C)C)CCCCC2)c1 (configuration not stated) | inactive: -0.28%
COc1ccc(S(=O)(=O)Nc2cc(S(=O)(=O)c3ccccc3)c(O)c(C)c2C)cc1 | inactive: 10.2%
